Measurements taken from patent publication US20030207290A1 (MESO SCALE TECHNOLOGIES, published 2003).

Molecular target: IkBa phosphopeptide (IkBa-24pp), …(p)SGLD(p)SMKDEEYC
Test: ECL 7-spot plate screen, peptide-BSA spot, biotinylated TnT protein, Ru-streptavidin; signal normalized in two steps

Chain of IkBa phosphopeptide (IkBa-24pp), …(p)SGLD(p)SMKDEEYC (peptide, as listed by the source): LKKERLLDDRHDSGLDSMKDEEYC

normalized ECL signal (clone grown in well format): 3 | normalized ECL signal (control clone): 38
B1: βTRCP2 (EST clone IMAGE 4237375), in vitro translated, biotin-labelled (other, human, UniProt Q9UKB1 1-542, looked up)
chain: MEPDSVIEDKTIELMCSVPRSLWLGCANLVESMCALSCLQSMPSVRCLQISNGTSSVIVSRKRPSEGNYQKEKDLCIKYFDQWSESDQVEFVEHLISRMCHYQHGHINSYLKPMLQRDFITALPEQGLDHIAENILSYLDARSLCAAELVCKEWQRVISEGMLWKKLIERMVRTDPLWKGLSERRGWDQYLFKNRPTDGPPNSFYRSLYPKIIQDIETIESNWRCGRHNLQRIQCRSENSKGVYCLQYDDEKIISGLRDNSIKIWDKTSLECLKVLTGHTGSVLCLQYDERVIVTGSSDSTVRVWDVNTGEVLNTLIHHNEAVLHLRFSNGLMVTCSKDRSIAVWDMASATDITLRRVLVGHRAAVNVVDFDDKYIVSASGDRTIKVWSTSTCEFVRTLNGHKRGIACLQYRDRLVVSGSSDNTIRLWDIECGACLRVLEGHEELVRCIRFDNKRIVSGAYDGKIKVWDLQAALDPRAPASTLCLRTLVEHSGRVFRLQFDEFQIISSSHDDTILIWDFLNVPPSAQNETRSPSRTYTYISR
modifications: biotin on some lysine residues (incorporated at random from biotin-Lys-tRNA)
notes: Product of a coupled transcription/translation reaction, used without purification; also called βTRCP [c]; bTRCP2

Entries with a single value are a further part of the results.
